The full ranking holds about 81,000 sequences; the median of “one-hybrid fitness for binding NBS DNA” is about -0.1, and the highest 2% start at about 0.36. The list shows a part of the results.
B1: Caulobacter ParB omega fusion; a variant is named by its letters at X, in order, B8GW30 (parent)
chain: MESVVVGEPGMSEGRRGLGRGLSALLGEVDAAPAQAPGEQLGGSREAPIEILQRNPDQPRRTFREEDLEDLSNSIREKGVLQPILVRPSPDTAGEYQIVAGERAWRAAQRAGLKTVPIMVRELDDLAVLEIGIIENVQRADLNVLEEALSYKVLMEKFERTQENIAQTIGKSXSHVANXMRLLXLPDEVQSYLVSGELTAXHARAIAAAADPVALAKQIIEGGLSVRETEALARKAPNLSAGKSKGGRPPRVKDTDTQALESDLSSVLGLDVSIDHRGSTGTLTITYATLEQLDDLCNRLTRGI

Variants of: B1
Assay: one-hybrid fitness for binding NBS DNA (the Noc-binding site; scaled: cognate 1, non-cognate 0); higher = stronger binding
Settings: with NBS DNA site
Method in brief: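 Caulobacter ParB libraries with four specificity codons randomised were screened by bacterial one-hybrid selection in the E. coli USO strain, using a HIS3 reporter whose site lies 19 bp from the promoter. Selection ran for 48 hours at 37°C on M9 lacking histidine, with 0.1 mM IPTG and 5 mM 3-AT. Plasmids were Illumina-sequenced before and after selection, three replicate libraries were pooled, and variants with under 10 reads were dropped. Fitness is the log change in each variant's read ratio to wild type, rescaled against the cognate and non-cognate sites.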

Variant	one-hybrid fitness for binding NBS DNA
PQVQ	≤ 0.2
QQLW	≤ 0.2
GLKC	≤ 0.2
HAEG	≤ 0.2
GMRF	≤ 0.2
PSHN	≤ 0.2
CKLG	≤ 0.2
FPCG	≤ 0.2
VHVL	≤ 0.2
NTIR	≤ 0.2
STVD	≤ 0.2
PFPD	≤ 0.2
GIDT	≤ 0.2
SAML	≤ 0.2
NRIA	≤ 0.2
RDND	≤ 0.2
TWCT	≤ 0.2
QPEI	≤ 0.2
PATK	≤ 0.2
RDAT	≤ 0.2
CTCR	≤ 0.2
TNDG	≤ 0.2
KDHA	≤ 0.2
RNSS	0.273
SLRH	≤ 0.2
IKPG	≤ 0.2

Variant	one-hybrid fitness for binding NBS DNA
PAKA	≤ 0.2
LSEV	≤ 0.2
KYTQ	≤ 0.2
GSWR	≤ 0.2
MYLC	≤ 0.2
MTRP	≤ 0.2
VLVG	≤ 0.2
RVEC	≤ 0.2
RWNT	0.313
KGPD	≤ 0.2
SSVR	≤ 0.2
IAHL	≤ 0.2
VANW	≤ 0.2
WDRA	≤ 0.2
WFKR	≤ 0.2
RWIY	≤ 0.2
FPGE	≤ 0.2
AGNA	≤ 0.2
CFSF	≤ 0.2
VSYG	≤ 0.2
CNTS	≤ 0.2
RSNR	0.526
APTW	≤ 0.2
QNHD	≤ 0.2
EYRG	≤ 0.2
GSMP	≤ 0.2

Variant	one-hybrid fitness for binding NBS DNA
QAYH	≤ 0.2
RWQE	≤ 0.2
RRRT	0.786
RTTM	≤ 0.2
HLAD	≤ 0.2
EPEC	≤ 0.2
SFEC	≤ 0.2
HVCP	≤ 0.2
TKNF	≤ 0.2
KWYG	≤ 0.2
QMIV	≤ 0.2
IPPG	≤ 0.2
LLSF	≤ 0.2
GTIG	≤ 0.2
PKLW	≤ 0.2
YVTY	≤ 0.2
YIDA	≤ 0.2
ALKF	≤ 0.2
HSPD	≤ 0.2
GWSS	≤ 0.2
QRNH	0.598
GPTY	≤ 0.2
VVSS	≤ 0.2
APRI	≤ 0.2
PTSS	≤ 0.2
RIHF	≤ 0.2

Variant	one-hybrid fitness for binding NBS DNA
QVAI	≤ 0.2
CICK	≤ 0.2
KNGM	≤ 0.2
GPKH	≤ 0.2
YGRD	≤ 0.2
RDVG	≤ 0.2
IDDD	≤ 0.2
RPET	≤ 0.2
PRHQ	≤ 0.2
TTFL	≤ 0.2
RAYL	≤ 0.2
NLMT	≤ 0.2
RRHP	≤ 0.2
HHYW	≤ 0.2
TNGT	≤ 0.2
LNLK	≤ 0.2
QNHT	≤ 0.2
SDEC	≤ 0.2
KQEC	≤ 0.2
GFYR	≤ 0.2
KDYT	≤ 0.2
ELHV	≤ 0.2
KRSF	≤ 0.2
RCVV	≤ 0.2
QKFL	≤ 0.2
WWPT	≤ 0.2

Variant	one-hybrid fitness for binding NBS DNA
SAHY	≤ 0.2
PLCY	≤ 0.2
TNSR	≤ 0.2
VTAR	≤ 0.2
SPNG	≤ 0.2
AHHY	≤ 0.2
PVPS	≤ 0.2
HLWS	≤ 0.2
LQRS	≤ 0.2
WPLK	≤ 0.2
SDDL	≤ 0.2
NNAP	≤ 0.2
NRKR	0.309
SYKN	≤ 0.2
DNTR	≤ 0.2
AARS	≤ 0.2
YSLI	≤ 0.2
CPHM	≤ 0.2
SMTI	≤ 0.2
YGNL	≤ 0.2
RFNT	0.279
NDGY	≤ 0.2
TLDR	≤ 0.2
KRGV	≤ 0.2
RDSK	≤ 0.2
AKEW	≤ 0.2

Variant	one-hybrid fitness for binding NBS DNA
HGIG	≤ 0.2
CVWS	≤ 0.2
QHRH	0.494
FASY	≤ 0.2
NMYT	≤ 0.2
QMRC	0.406
RKFQ	≤ 0.2
WKTT	≤ 0.2
KTMP	≤ 0.2
WAYH	≤ 0.2
CGAS	0.215
FVPY	≤ 0.2
NMPI	≤ 0.2
VTDM	≤ 0.2
TQHN	≤ 0.2
SPLR	≤ 0.2
MEAE	≤ 0.2
PGNS	≤ 0.2
QRRS	0.787
WKAG	≤ 0.2
LLIG	≤ 0.2
SSRG	≤ 0.2
SWGI	≤ 0.2

— a collection of fitness landscapes (doi:10.1016/j.celrep.2020.107928)
